Test results reported in the antibiotic and cytotoxicity screens of Wong et al. (2023).
This is one part of the list.

Experiments:
HSkMC = human skeletal muscle cells; experiment: cytotoxicity call (relative viability < 0.9); details: 10 µM
HepG2 = experiment: cytotoxicity call (relative viability < 0.9); details: 10 µM
S. aureus RN4220 = experiment: growth inhibition call (relative growth <= 0.2); details: 50 µM

Cc1ccc(S(=O)(=O)Nc2ccc3c(c2)C(=O)N([C@H](C)CO)C[C@@H](C)[C@@H](CN(C)C(=O)NC2CCCCC2)OCCCC[C@@H](C)O3)cc1
inactive: cytotoxicity call (HSkMC) | cytotoxicity call (HepG2) | growth inhibition call (S. aureus RN4220)

CC(=O)n1cc([C@H]2C=C(C(=O)N3CCN(Cc4ccccc4)CC3)O[C@@H](OCc3ccc(COC(=O)NCCCCCC(=O)NO)cc3)C2)c2ccccc21
inactive: cytotoxicity call (HSkMC) | cytotoxicity call (HepG2) | growth inhibition call (S. aureus RN4220)

CN(C)CCCNC(=O)C[C@H]1CC[C@H]2[C@@H](COC[C@@H](O)CN2S(=O)(=O)c2ccc(Cl)cc2)O1
inactive: cytotoxicity call (HSkMC) | cytotoxicity call (HepG2) | growth inhibition call (S. aureus RN4220)

CN(C)C(=O)C[C@@H]1CC[C@H](NC(=O)C2CC2)[C@@H](CO)O1
inactive: cytotoxicity call (HSkMC) | cytotoxicity call (HepG2) | growth inhibition call (S. aureus RN4220)

C[C@H](CO)N1C[C@H](C)[C@H](CN(C)S(=O)(=O)c2cn(C)cn2)Oc2ncc(C3=CCCCC3)cc2C1=O
inactive: cytotoxicity call (HSkMC) | cytotoxicity call (HepG2) | growth inhibition call (S. aureus RN4220)

CC(C)NC(=O)Nc1ccc2c(c1)C(=O)N([C@H](C)CO)C[C@@H](C)[C@@H](CN(C)CC1CCCCC1)OCCCC[C@@H](C)O2
inactive: cytotoxicity call (HSkMC) | cytotoxicity call (HepG2) | growth inhibition call (S. aureus RN4220)

O=C(C[C@H]1CC[C@H]2[C@@H](COC[C@H](O)CN2C(=O)c2cccnc2)O1)NCC1CC1
inactive: cytotoxicity call (HSkMC) | cytotoxicity call (HepG2) | growth inhibition call (S. aureus RN4220)

COC(=O)[C@H](Cc1ccc(-n2cc(-c3ccc(C(=O)NO)s3)nn2)cc1)N1CC2=C[C@H]([C@@H](O)Cc3ccccc3)n3c(=O)n(C)c(=O)n3[C@@H]2[C@@H](C2CC2)O1
inactive: cytotoxicity call (HSkMC) | cytotoxicity call (HepG2) | growth inhibition call (S. aureus RN4220)

CCN1CCC(N(C)S(=O)(=O)c2cn(C)c(=O)n(C)c2=O)CC1
inactive: cytotoxicity call (HSkMC) | cytotoxicity call (HepG2) | growth inhibition call (S. aureus RN4220)
